In all, about 350,000 compounds went through this assay and about 31,000 (8.9%) were called active. The shares of active, inactive and inconclusive entries below differ from those in the screen. The call rests on the fitted dose curve; in most records, active means well fitted inhibition curve with a large enough effect; inconclusive means small, poorly fitted or top-dose-only effect; inactive means no such curve, though single readings can be large or run the other way. Where the call is inconclusive, the potency comes from a doubtful curve fit.
The molecules below were run against Histone-lysine N-methyltransferase EHMT2 (Homo sapiens) (UniProt Q96KQ7) (assay: qHTS Assay for Inhibitors of Histone Lysine Methyltransferase G9a). Settings: G9a H3K9 monomethylation, AlphaScreen, 2 h; activity, negative = inhibition: at 59 µM (top of the series) unless noted.
UniProt Q96KQ7, sequence (Q96KQ7 whole entry, looked up): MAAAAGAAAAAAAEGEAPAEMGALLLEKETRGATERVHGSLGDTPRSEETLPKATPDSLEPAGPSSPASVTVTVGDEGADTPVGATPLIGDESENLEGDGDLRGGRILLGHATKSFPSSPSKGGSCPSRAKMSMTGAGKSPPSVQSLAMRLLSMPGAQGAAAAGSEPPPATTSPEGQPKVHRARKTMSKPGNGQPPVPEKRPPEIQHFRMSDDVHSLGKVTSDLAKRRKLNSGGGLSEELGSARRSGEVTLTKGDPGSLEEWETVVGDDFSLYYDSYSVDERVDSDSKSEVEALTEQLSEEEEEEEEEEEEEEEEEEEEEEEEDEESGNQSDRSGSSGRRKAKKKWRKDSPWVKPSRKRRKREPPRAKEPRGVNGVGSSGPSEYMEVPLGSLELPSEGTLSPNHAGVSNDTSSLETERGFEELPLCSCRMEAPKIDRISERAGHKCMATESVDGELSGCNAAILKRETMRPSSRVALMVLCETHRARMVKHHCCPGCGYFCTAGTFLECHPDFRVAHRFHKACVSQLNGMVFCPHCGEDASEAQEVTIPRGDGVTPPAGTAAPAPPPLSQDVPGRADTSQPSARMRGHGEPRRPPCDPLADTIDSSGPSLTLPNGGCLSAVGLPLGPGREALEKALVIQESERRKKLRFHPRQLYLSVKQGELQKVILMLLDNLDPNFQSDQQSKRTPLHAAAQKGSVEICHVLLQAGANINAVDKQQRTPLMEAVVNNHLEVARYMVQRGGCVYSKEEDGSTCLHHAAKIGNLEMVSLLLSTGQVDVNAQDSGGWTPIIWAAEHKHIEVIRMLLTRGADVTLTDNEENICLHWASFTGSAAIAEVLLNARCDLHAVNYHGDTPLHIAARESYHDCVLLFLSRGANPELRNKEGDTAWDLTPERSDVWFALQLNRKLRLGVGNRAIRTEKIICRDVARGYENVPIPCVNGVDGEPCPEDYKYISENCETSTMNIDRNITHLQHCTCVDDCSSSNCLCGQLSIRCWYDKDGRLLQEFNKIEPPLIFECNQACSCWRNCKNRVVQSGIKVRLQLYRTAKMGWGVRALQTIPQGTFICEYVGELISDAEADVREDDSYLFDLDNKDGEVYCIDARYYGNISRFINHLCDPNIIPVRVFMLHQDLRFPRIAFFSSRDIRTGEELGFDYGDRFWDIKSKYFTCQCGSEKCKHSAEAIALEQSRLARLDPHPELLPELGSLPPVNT
Procedure, shortened: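 Quantitative HTS format: methyltransferase activity on a biotin-tagged H3K9 peptide is measured by AlphaScreen, using a rabbit anti-monomethyl-H3K9 antibody with streptavidin donor and anti-IgG acceptor beads. Final levels are 20 nM enzyme, 500 nM peptide, 20 uM SAM; 2 h RT.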
Further: nearly all actives have a fitted effect of over 75% in size.
On the % scale 0 is the no-effect control and ±100 the full control effect; potency means the concentration at half of the fitted maximal effect; tags describe the fitted curve by direction and shape.

Q: Which Potency does the source give for `COc1ccc(-n2c(C)cc(/C=C3\SC(=O)NC3=O)c2C)cc1` here?
A: The Potency was active: 22.4 µM.

Q: For `O=C(CSc1ccc2ccccc2c1)NCCCN1CCCC1=O`, which Potency is on record?
A: Its Potency is inconclusive: 79.4 µM [inhibitor, single point].

Q: `COc1ccc(NC(=O)Nc2nc(C)cc(C)n2)c(OC)c1` was tested. Which Potency did it give?
A: Its Potency is inconclusive: 89.1 µM [inhibitor, partial curve, poor fit].

Q: For `CNCc1ccc(OCc2ccccc2)c(OC)c1`, which activity, negative = inhibition is on record?
A: The activity, negative = inhibition was inconclusive: -61.8% [inhibitor].

Q: For `COc1ccc(N2CCN(C(=O)CNC(=O)c3cccc(Br)c3)CC2)cc1`, which Potency is on record?
A: Its Potency is inconclusive: 89.1 µM [inhibitor, single point].

Q: `Cc1cccc(C)c1NC(=S)NCCc1ccc(O)c(O)c1` was tested. Which Potency did it give?
A: Its Potency is active: 25.1 µM.

Q: How did the Potency turn out when `O=C(Oc1cccc(N2C(=O)CCC2=O)c1)C1CC(=O)N(c2ccc(F)cc2)C1` (centres undefined) was run?
A: The Potency was inconclusive: 44.7 µM [inhibitor, partial curve, poor fit].

Q: Which Potency does the source give for `Cc1cc(OC(=O)c2ccccc2Br)c([N+](=O)[O-])c(=O)[nH]1` here?
A: The Potency was inconclusive: 79.4 µM [inhibitor, single point].

Q: `CCCCn1nnnc1SCC(=O)c1cc(Cl)ccc1OC` was tested. Which “activity, negative = inhibition” value did it give?
A: Its value is inactive: 64.9% [at 102 µM].

Q: Which Potency does the source give for `O=C(Nc1ccc2c(c1)OCO2)C1CCN(C(=O)c2cccs2)CC1` here?
A: Its Potency is inconclusive: 89.1 µM [inhibitor, single point].

Q: With `CCC(C)(C)c1ccc(OC(=O)c2cccnc2Cl)cc1` as the molecule, how does the “activity, negative = inhibition” value read?
A: Its value is inactive: 123% [at 102 µM].

Q: How did the Potency turn out when `COc1ccc(C(C)C)cc1S(=O)(=O)Nc1ncn[nH]1` was run?
A: Its Potency is inconclusive: 89.1 µM [inhibitor, single point].

Q: With `Cc1ccc(C(=O)Nc2cccc(S(=O)(=O)N3CCCCC3)c2)cc1[N+](=O)[O-]` as the molecule, how does the activity, negative = inhibition read?
A: Its activity, negative = inhibition is inconclusive: -86.8% [inhibitor] [at 12.7 µM].

Q: Which Potency does the source give for `CCOC(=O)c1c(C)n(C)c2cc(-c3cccc(C(F)(F)F)c3)c(O)cc12` here?
A: The Potency was inconclusive: 39.8 µM [inhibitor, single point].

Q: For `Cc1ccc(S(=O)(=O)N(C)C)cc1NC(=O)c1ccc2ccccc2n1`, which Potency is on record?
A: Its Potency is inconclusive: 56.2 µM [inhibitor, single point].

Q: Which activity, negative = inhibition does the source give for `Cc1ccc(-n2c(Cc3cccn3C)nnc2SCC(=O)Nc2nnc(C)s2)cc1` here?
A: The activity, negative = inhibition was inactive: -7.46% [at 2.33 µM].

Q: Which Potency does the source give for `Cc1cccc(-n2c(=O)c3c4c(sc3n3c(=S)[nH]nc23)CCC4)c1` here?
A: Its Potency is inconclusive: 3.55 µM [inhibitor, full curve, poor fit].

Q: For `COc1ccc(C(=O)C2CN(c3ccccc3)CC2c2ccc(Cl)cc2)cc1` (centres undefined), which Potency is on record?
A: The Potency was inconclusive: 89.1 µM [inhibitor, single point].

Q: Which Potency does the source give for `CC(=O)c1cccc(NCC(=O)c2ccc(C)c([N+](=O)[O-])c2)c1` here?
A: Its Potency is active: 35.5 µM.

Q: How did the Potency turn out when `O=C(NCCCN1CCCC1)c1ccc(CSCc2cccc(Cl)c2)o1` was run?
A: Its Potency is inconclusive: 89.1 µM [inhibitor, single point].

Q: Which “activity, negative = inhibition” value does the source give for `COc1ccc(N(CC(O)CN2CCOCC2)S(=O)(=O)c2ccccc2)cc1` (centres undefined) here?
A: Its value is inactive: -8.64% [at 102 µM].

Q: Which Potency does the source give for `C=CCOc1cccc(C2C(C(=O)c3ccc(C)o3)=C(O)C(=O)N2c2nnc(C)s2)c1` (centres undefined) here?
A: Its Potency is inconclusive: 12.6 µM [inhibitor, partial curve, poor fit].

Q: Which “activity, negative = inhibition” value does the source give for `COc1cc2c(cc1OC)CN(C(=O)CNC(=O)c1ccc(OC(F)F)cc1)CC2` here?
A: The value was inactive: 16.1% [at 102 µM].

Q: How did the Potency turn out when `O=C(CCCn1c(=S)[nH]c2ccc(Br)cc2c1=O)NCC1CCCO1` (centres undefined) was run?
A: The Potency was active: 39.8 µM.

Q: Which Potency does the source give for `Cc1cc(C)cc(OC(C)C(=O)Nc2nc3c(s2)CCCC3)c1` (centres undefined) here?
A: Its Potency is inconclusive: 10 µM [inhibitor, partial curve].

Q: Which Potency does the source give for `Cc1cccc(NC(=O)CN(CC2CCCO2)C(=O)c2oc3ccccc3c2C)c1C` (centres undefined) here?
A: The Potency was inconclusive: 0.794 µM [inhibitor, full curve, poor fit].

Q: With `Cc1cc(C)cc(C(=O)NCCCN2CCOCC2)c1` as the molecule, how does the activity, negative = inhibition read?
A: The activity, negative = inhibition was inconclusive: -52.7% [inhibitor] [at 0.501 µM].

Q: With `N#CC1(C#N)CC(C=O)=C(N)C1(C#N)CC(=O)C12CC3CC(CC(C3)C1)C2` (centres undefined) as the molecule, how does the Potency read?
A: Its Potency is inconclusive: 10 µM [inhibitor, partial curve, poor fit].

Q: With `COc1ccc2c(c1)c(=O)c(C(=O)c1ccc(C)cc1)cn2CC(=O)Nc1ccc(F)cc1` as the molecule, how does the Potency read?
A: Its Potency is inconclusive: 89.1 µM [inhibitor, single point].

Q: `Cc1ccc(Cl)c(OCCN2CCCC(C)C2)c1` (centres undefined) was tested. Which Potency did it give?
A: The Potency was active: 12.6 µM.

Q: How did the Potency turn out when `Cc1ccc(-n2nc3ccc(NC(=O)c4ccco4)cc3n2)cc1` was run?
A: Its Potency is inconclusive: 20 µM [inhibitor, single point].

Q: `CCOCc1nnc(NC(=O)c2c(OC)cccc2OC)s1` was tested. Which Potency did it give?
A: The Potency was inconclusive: 89.1 µM [inhibitor, single point].

Q: `Cc1ccc(Nc2nnc(SCC(=O)NC3CC3)s2)cc1` was tested. Which Potency did it give?
A: Its Potency is inconclusive: 7.94 µM [inhibitor, single point].

Q: How did the “activity, negative = inhibition” value turn out when `CCn1c(Cc2ccccc2)nnc1SCC(=O)Nc1ccc(OC)cc1` was run?
A: The value was inactive: 15.2%.

Q: Which “activity, negative = inhibition” value does the source give for `COc1ccc(CCNC(=O)Cn2nc(-c3ccc(Cl)cc3)ccc2=O)cc1OC` here?
A: Its value is inactive: -4.47%.

Q: How did the Potency turn out when `Cc1cc(C)cc(C(=O)N2CCN=C2SCc2ccc([N+](=O)[O-])cc2)c1` was run?
A: The Potency was inconclusive: 22.4 µM [inhibitor, partial curve, poor fit].

Q: For `COc1cc(NC(=O)Cn2cc(S(=O)(=O)N3CCC(C)CC3)c3ccccc3c2=O)cc(OC)c1OC`, which Potency is on record?
A: The Potency was inconclusive: 10 µM [inhibitor, partial curve, poor fit].

Q: How did the “activity, negative = inhibition” value turn out when `CCCC(C(=O)Nc1cc(C)c(Cl)cc1OC)N1Cc2ccccc2C1=O` (centres undefined) was run?
A: Its value is inactive: -0.945%.

Q: How did the “activity, negative = inhibition” value turn out when `CC(=O)N1c2ccccc2CC1C(=O)N1CCN(c2ccccc2F)CC1` (centres undefined) was run?
A: The value was inactive: 12.9%.

Q: Which Potency does the source give for `O=C(O)c1ccc(Cl)c(S(=O)(=O)Nc2ccccc2C(=O)Nc2ccc(Cl)cc2)c1` here?
A: Its Potency is inconclusive: 89.1 µM [inhibitor, single point].

Q: For `CCOC(=O)C1=C(CNCc2ccc(Cl)cc2)NC(=O)NC1c1ccccc1` (centres undefined), which “activity, negative = inhibition” value is on record?
A: Its value is inactive: 1.43%.

Q: Which Potency does the source give for `O=C(O)c1ccc(N/N=C/c2c[nH]c3ccccc23)cc1` here?
A: Its Potency is inconclusive: 56.2 µM [inhibitor, partial curve, poor fit].

Q: For `CCOc1ccc(C(=O)NCC2CCCN2S(=O)(=O)c2cccs2)cc1` (centres undefined), which Potency is on record?
A: The Potency was inconclusive: 79.4 µM [inhibitor, single point].

Q: `COc1ccc(C(C)C)cc1S(=O)(=O)N1CCN(C)CC1` was tested. Which Potency did it give?
A: Its Potency is inconclusive: 89.1 µM [inhibitor, single point].
